Data reported in the supplement of paper PMC3334620.
Over roughly 33,000 sequences, “E-score (-0.5 to 0.5)” has its median near -0.017; the highest 2% begin near 0.3. The list shows a part of the results.

target: T1, Sut1 (UniProt P53032); assay: PBM E-score (8-mer binding enrichment) (E-score (-0.5 to 0.5)); higher = stronger / more preferred TF binding; most listed sequences are background and not binding sites; details: protein concentration: 200 nM; construct: GST-full length
T1 sequence: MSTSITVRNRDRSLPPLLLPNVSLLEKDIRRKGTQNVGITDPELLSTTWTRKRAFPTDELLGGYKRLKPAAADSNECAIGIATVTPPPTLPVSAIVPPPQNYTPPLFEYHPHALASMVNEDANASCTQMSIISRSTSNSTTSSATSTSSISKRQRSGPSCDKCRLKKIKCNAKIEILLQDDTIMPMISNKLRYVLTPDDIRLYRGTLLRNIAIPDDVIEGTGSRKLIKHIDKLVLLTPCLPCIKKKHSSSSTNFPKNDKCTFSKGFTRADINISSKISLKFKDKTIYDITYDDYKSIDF
Procedure, shortened: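 Masliner-normalised scans of fluorescent anti-GST signal were the basis for scoring. That signal came from GST-tagged yeast transcription factors applied at about 100-200 nM to double-stranded universal all-10-mer Agilent arrays on fresh or once-stripped slides. Each ungapped eight-base word, pooled with its reverse complement, received an E-score from the Universal PBM Analysis Suite.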

Sequence	PBM E-score
ACACTTCG	-0.102
GGACCTAC	0.197
CACAGAGG	-0.262
CCTATGCA	-0.139
AAATTTCT	0.252
ACGACCAA	0.0789
CTCGTGAC	-0.235
CAGAAAAA	0.0845
CACCTACC	-0.206
GGGCTAAA	-0.216
ATCTCGAG	0.019
CATTCTAG	-0.0271
ACACCGCT	-0.197
CGGGTTTA	0.144
AGCGGGGA	-0.149
AGTGCTCG	-0.0481
CCTACGCG	-0.166
GCTAGGAA	-0.0732
CCAACAGA	-0.141
AGAGGCAA	-0.0652
ACCTTCTA	0.0755
GCCCCATA	-0.245

Sequence	PBM E-score
GGAGGCCA	-0.282
GAGCAATC	0.00468
ACACGTAC	0.0618
AGAGGCGA	-0.137
CAACGGTC	-0.0872
AGCGATAA	0.0334
GGGTGGTA	-0.128
CGTTGAAC	-0.0173
CGTAACAC	-0.169
ACAGGCCT	-0.197
AGCTTCCA	-0.0034
CTTAGAGC	0.0425
ACAGAGGT	-0.13
CCAACTTC	-0.041
GACCAGTA	-0.274
GTGAATTA	0.0914
ACCCCCAG	-0.287
CTCTGTAA	-0.134
GCTTCCGA	0.303
ATATGGTG	-0.0888
ATCTGCCG	0.143
ACAATTTC	0.0702

Sequence	PBM E-score
CCATCCAA	0.144
CATTCGGA	0.392
CGGGGTAA	0.224
CAAGTAAA	0.0738
CGTTGTTC	0.086
CGTGCTAC	-0.252
ACCTGGTC	-0.138
CTGGTAGA	-0.0164
GACCACGC	-0.218
CCACACGC	-0.197
TCTCGCCA	-0.0247
AAACCAAG	0.117
ATTCTGGG	-0.169
CCCGCGGA	0.295
GACAGCTA	-0.149
ATGAGTCG	-0.157
GCTGAAAC	0.0538
CGCATAAG	-0.0216
AAGATACG	0.224
CATACTCC	0.325
AGTTGCTG	-0.0452
AGACTCGC	-0.232

Sequence	PBM E-score
ACGGGGCA	-0.204
AATGCTGG	-0.172
CATATTAC	0.179
AATTACTA	0.175
AATTGCTA	0.111
CTCCTCCC	-0.271
CCTTACGC	-0.0944
ACCCCCGT	-0.282
CCCATCGA	-0.0349
CGATACCG	-0.126
AAGTAGGA	-0.0349
ACAGGTTC	-0.163
ACTTGCTA	-0.0901
CGATATGA	-0.0866
GTAAGTGA	0.136
CATTAAGA	0.00184
TATGCAGA	-0.0195
GGGCTCTA	-0.156
AGCAGCCC	-0.174
ACATAAAG	0.188
CAGTCAAC	-0.182
AAAACAGG	-0.0709

Sequence	PBM E-score
ATGCACAG	-0.229
AGACAACC	0.172
AATGTCAA	-0.0431
AGCCTGAG	-0.276
CAGTTTTC	0.0987
AGGACGTA	-0.139
GGTCGGAA	0.145
AGACGAAC	0.0923
ACCAGGTC	-0.142
CTCTACAC	-0.197
CATGTGGA	-0.078
ATCACACC	0.0238
GGGCTCAC	-0.236
CTTGATCA	0.00233
CAGACCGA	-0.102
GCCACAAA	-0.0017
ACGAATCT	-0.104
CGATTCAA	-0.015
AGGATATC	-0.0305
ATAGTCAC	0.0579
AGTGTCCG	0.168
GCTCTGAA	-0.186
